Assay results from PubChem BioAssay AID686978 (National Center for Advancing Translational Sciences (NCATS), 2013).
Screen size: about 420,000 compounds; about 64,000 (15%) were called active. Inconclusive results, whose numbers are uncertain, are shown with a selection of clear calls. The call rests on the fitted dose curve; in most records, active means well fitted inhibition curve with a large enough effect; inconclusive means small, poorly fitted or top-dose-only effect; inactive means flat fitted curve, though single readings scatter. No potency is given beside an inconclusive call; the fits are too rough.

assay: qHTS for Inhibitors of human tyrosyl-DNA phosphodiesterase 1 (TDP1): qHTS in cells in absence of CPT; details: DT40 Tdp1-/- hTDP1 cells, no CPT, ATP luminescence, 48 h; activity change, negative = growth inhibition: at 46.2 µM (top of the series) unless noted; further: nearly all actives have a fitted effect of over 55% in size
How it was run: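 Stably hTDP1-transfected Tdp1-null chicken DT40 cells were treated with library compounds minus camptothecin and grown for at least 48 hr at 37 °C, after which cellular ATP was quantified by luminescence.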
On the % scale 0 is the no-effect control and ±100 the full control effect; potency means the concentration at half of the fitted maximal effect; tags describe the fitted curve by direction and shape.

Row | Structure (SMILES) | Potency | activity change, negative = growth inhibition
1 | CC(=O)Nc1cc2c(cc1Cl)-c1ccccc1C2 | inactive | –
2 | COC(=O)c1ccc(CNC(=O)N2CCN(S(=O)(=O)c3ccc(C)cc3)CC2)cc1 | – | inconclusive: -34.8% [inhibitor]
3 | CCOC(=O)N1CCC(n2c(SCC(=O)NCc3ccco3)nc3ccsc3c2=O)CC1 | active: 18.4 µM | –
4 | COc1ccc(-c2cc(C(=O)Oc3cccc(C)c3)c3ccccc3n2)cc1 | inconclusive [inhibitor, single point] | –
5 | O=C(Nc1cccnc1Cl)c1ccc(S(=O)(=O)N2CCCCCC2)cc1 | inactive | –
6 | CCOc1cccc2sc(N(Cc3cccnc3)C(=O)C3CCCCC3)nc12 | inconclusive [inhibitor, single point] | –
7 | CCCNC(=O)C1(C)CCCN(Cc2ccccc2Cl)C1 (stereo not given) | inconclusive [inhibitor, single point] | –
8 | Cc1ccc(NC(=O)CSCc2cnn(-c3ccccc3)c2-n2cccc2)c(C)c1 | active: 16.4 µM | –
9 | Cc1ccc(-n2nc3c(=O)n(CCCC(=O)NCCc4ccccc4C)nc(C)c3c2C)cc1 | active: 11.6 µM | –
10 | Cc1cccc(NC(=O)Cn2c(=O)n3nc(CCn4nc(C)cc4C)nc3c3ccccc32)c1 | active: 12.6 µM | –
11 | Cc1ccccc1OCC(=O)OCC(=O)NC1CCCC1 | inactive | –
12 | COc1ccc(CN(C2CCCC2)S(=O)(=O)c2ccc(-n3cnnn3)cc2)cc1OC | inconclusive [inhibitor, single point] | –
13 | COc1ccc(C2CC(c3cccs3)=NN2C(=O)COC(=O)C2CCCCC2)cc1OC (stereo not given) | inconclusive [inhibitor, single point] | –
14 | Cc1onc(-c2ccccc2)c1C(=O)N1CCN(Cc2ccc3c(c2)OCO3)CC1 | inconclusive [inhibitor, single point] | –
15 | COc1ccc(NC(=O)c2cc(-c3cc(Cl)ccc3C)n[nH]2)c(OC)c1 | inconclusive [inhibitor, single point] | –
16 | Cc1ccc(N(C(=O)Cn2nnc(-c3cccs3)n2)C(C(=O)NC2CCCC2)c2ccncc2)cc1 (stereo not given) | active: 20.6 µM | –
17 | COc1cc(CC(=O)N2CCN(S(=O)(=O)c3ccc(C(C)C)cc3)CC2)cc(OC)c1OC | active: 20.6 µM | –
18 | CCCNC(=O)C1CNc2ccccc2O1 (stereo not given) | – | inconclusive: 5.12% [inhibitor]
19 | CCn1c(SCC(=O)c2ccc(Cl)cc2)nnc1-c1ccoc1C | inconclusive [inhibitor, single point] | –
20 | COc1ccc(-c2cc3nc(NCc4ccc(C)cc4C)n(C)c(=O)c3s2)cc1OC | inconclusive [inhibitor, single point] | –
